{
  "source": "patent CN113004416A",
  "about": "(HEFEI HANKEMAB BIOTECHNOLOGY CO LTD, dated 2021)",
  "key": {"[1]": {"biological_target": "T1, 细胞表面HER2抗原 (HER2 on SKOV3, N87, MCF-7/HER2, MCF-7, JIMT-1, AC16 cells) (human, UniProt P04626)", "T1 construct": "whole, on cells", "experiment": "flow cytometry on N87 cells"}, "[2]": {"biological_target": "T1, 细胞表面HER2抗原 (HER2 on SKOV3, N87, …)", "experiment": "flow cytometry on SKOV3 cells"}, "[3]": {"biological_target": "T1, 细胞表面HER2抗原 (HER2 on SKOV3, N87, …)", "experiment": "flow cytometry on JIMT-1 cells"}, "[4]": {"biological_target": "T2, HER2抗原 (human HER2/ErbB2 in lysate of T6-17 cells, coated on ELISA plate) (human, UniProt P04626)", "T2 construct": "The antigen is a crude detergent lysate of cells with high membrane expression of human HER2, not a purified protein", "experiment": "ELISA on coated T6-17 cell lysate"}, "[5]": {"biological_target": "T1, 细胞表面HER2抗原 (HER2 on SKOV3, N87, …)", "experiment": "flow cytometry on MCF-7/HER2 cells"}, "[6]": {"biological_target": "细胞表面4-1BB抗原 (human 4-1BB on CHO-K1-Hu4-1BB stable cells; CD137 on lymphocytes) (human)", "experiment": "flow cytometry on CHO-K1-Hu4-1BB cells"}},
  "data": [
    {"binder": "抗人HER2/4-1BB双特异性抗体 HK006A1 (bispecific antibody, human IgG4 S228P, F234A L235A, Homodimer of two identical chains joined by disulfide bonds between hinge cysteines; Expressed in HEK293F cells, purified by Protein A and size exclusion; also called 靶向HER2-CD137双特异性抗体) [in this place about 120 residues]GGGGSGGGGSGGGGSDIQMTQSPSSLSASVGDRVTITCRASQDVNTAVAWYQQKPGKAPKLLIYSASFLYSGVPSRFSGSRSGTDFTLTISSLQPEDFATYYCQQHYTTPPTFGGGTKLTVLG[in this place human IgG4 Fc with S228P F234A L235A (EU numbers)]GGGGSGGGGSGGGGSQVQLQESGPGLVKPSETLSITCTVSGSSLTSYGVHWVRQPPGKGLEGLGVIWPGGSTNYNSALMSRLTISKDNSKSQVSLKMSSLTAADTAMYYCARVTGTWYFDVWGQGTTVTVSSGGGGSGGGGSGGGGSDIQMTQSPSSLSASLGDRVTISCSASQGISNYLNWYQQKPDGTVKLLIYYTSTLHSGVPSRFSGSGSGTDFTLTISSLQPEDVATYYCQQYSKLPWTFGGGTKLEIK", "values": [
      {"measurement": "EC50", "setting": "[1]", "result": 6.16, "unit": "µg/mL"},
      {"measurement": "EC50", "setting": "[2]", "result": 3.87, "unit": "µg/mL"},
      {"measurement": "EC50", "setting": "[3]", "result": 3.34, "unit": "µg/mL"},
      {"measurement": "EC50", "setting": "[4]", "result": 0.131, "unit": "µg/mL"},
      {"measurement": "EC50", "setting": "[5]", "result": 5.63, "unit": "µg/mL"},
      {"measurement": "EC50", "setting": "[6]", "result": 5.46, "unit": "µg/mL"}
    ]}
  ]
}
